From US12269793B2, “Affinity illudofulvene conjugates” (AF Chemicals, LLC, priority 2019, dated 2025)

Tested on: NCI 60 cell line panel
Assay: NCI DTP 60 cell line screen assay
Conditions: result in words

CC(=O)O[C@@H]1C2=C(C)C3(CC3)[C@@](C)(O)C(=O)C2=C[C@@]1(C)CO [Analog 371]
potency at lysing the NCI 60 tumor cell line: most potent
